Experimental data: the supplement of paper PMC9542798

Experiments:
Experiment in all cases: minimum inhibitory concentration
Tetracycline = compound: CN(C)[C@@H]1C(O)=C(C(N)=O)C(=O)[C@@]2(O)C(O)=C3C(=O)c4c(O)cccc4[C@@](C)(O)[C@H]3C[C@@H]12 [Tetracycline]
Method: (§1)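 Broth microdilution MIC per ISO 10932 on precoated VetMIC Lact-1 plates (tylosin, vancomycin and ampicillin plates prepared manually) against lactic acid bacteria and bifidobacteria isolates. Plates were read visually after 48 h anaerobic incubation (bifidobacteria 72 h; enterococci and staphylococci 24 h aerobic) at species-specific temperatures of 30 or 37 °C. Values prefixed with < or > are outside the tested dilution range.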

Streptomycin = compound: CN[C@@H]1[C@H](O[C@H]2[C@H](O[C@H]3[C@H](O)[C@@H](O)[C@H](N=C(N)N)[C@@H](O)[C@@H]3N=C(N)N)O[C@@H](C)[C@]2(O)C=O)O[C@@H](CO)[C@H](O)[C@H]1O [Streptomycin]
Method: as §1

Neomycin = compound: NC[C@@H]1O[C@H](O[C@H]2[C@@H](O)[C@H](O[C@@H]3[C@@H](O)[C@H](N)C[C@H](N)[C@H]3O[C@H]3O[C@H](CN)[C@@H](O)[C@H](O)[C@H]3N)O[C@@H]2CO)[C@H](N)[C@@H](O)[C@@H]1O [Neomycin]
Method: as §1

Gentamicin = compound: CNC(C)C1CCC(N)C(OC2C(N)CC(N)C(OC3OCC(C)(O)C(NC)C3O)C2O)O1 [Gentamicin]
Method: as §1

Ampicillin = compound: CC1(C)S[C@@H]2[C@H](NC(=O)[C@H](N)c3ccccc3)C(=O)N2[C@H]1C(=O)O [Ampicillin]
Method: as §1

Clindamycin = compound: CCC[C@@H]1C[C@@H](C(=O)N[C@@H]([C@H]2O[C@H](SC)[C@H](O)[C@@H](O)[C@H]2O)[C@H](C)Cl)N(C)C1 [Clindamycin]
Method: as §1

Kanamycin = compound: NC[C@H]1O[C@H](O[C@H]2[C@H](O)[C@@H](O[C@H]3O[C@H](CO)[C@@H](O)[C@H](N)[C@H]3O)[C@H](N)C[C@@H]2N)[C@H](O)[C@@H](O)[C@@H]1O [Kanamycin]
Method: as §1

Chloramphenicol = compound: O=C(N[C@H](CO)[C@H](O)c1ccc([N+](=O)[O-])cc1)C(Cl)Cl [Chloramphenicol]
Method: as §1

Erythromycin = compound: CC[C@H]1OC(=O)[C@H](C)[C@@H](O[C@H]2C[C@@](C)(OC)[C@@H](O)[C@H](C)O2)[C@H](C)[C@@H](O[C@@H]2O[C@H](C)C[C@H](N(C)C)[C@H]2O)[C@](C)(O)C[C@@H](C)C(=O)[C@H](C)[C@@H](O)[C@]1(C)O [Erythromycin]
Method: as §1
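Note: isolates derived from commercial starter, protective, probiotic or feed-additive cultures, from fermented products, from human gut mucosa or feces, and from human milk or colostrum.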

Test System	minimum inhibitory concentration (Tetracycline)	minimum inhibitory concentration (Streptomycin)	minimum inhibitory concentration (Neomycin)	minimum inhibitory concentration (Gentamicin)	minimum inhibitory concentration (Ampicillin)	minimum inhibitory concentration (Clindamycin)	minimum inhibitory concentration (Kanamycin)	minimum inhibitory concentration (Chloramphenicol)	minimum inhibitory concentration (Erythromycin)
Pediococcus pentosaceus IM1126 (strain group: non-starter strains)	32 µg/mL	128 µg/mL	8 µg/mL	8 µg/mL	4 µg/mL	0.12 µg/mL	256 µg/mL	4 µg/mL	0.5 µg/mL
Lacticaseibacillus casei IM1103 (strain group: non-starter strains)	1 µg/mL	32 µg/mL	32 µg/mL	16 µg/mL	2 µg/mL	0.25 µg/mL	128 µg/mL	8 µg/mL	0.25 µg/mL
Lacticaseibacillus casei IM1098 (strain group: starter cultures)	1 µg/mL	16 µg/mL	4 µg/mL	2 µg/mL	4 µg/mL	0.12 µg/mL	32 µg/mL	4 µg/mL	0.12 µg/mL
Latilactobacillus curvatus IM1134 (strain group: non-starter strains)	1 µg/mL	8 µg/mL	4 µg/mL	2 µg/mL	4 µg/mL	0.5 µg/mL	32 µg/mL	4 µg/mL	0.25 µg/mL
Lactiplantibacillus plantarum IM1136 (strain group: non-starter strains)	32 µg/mL	64 µg/mL	4 µg/mL	4 µg/mL	2 µg/mL	0.25 µg/mL	128 µg/mL	8 µg/mL	0.5 µg/mL
Pediococcus acidilactici/pentosaceus/lolli IM721 (strain group: human milk or colostrum)	32 µg/mL	64 µg/mL	16 µg/mL	16 µg/mL	4 µg/mL	0.12 µg/mL	256 µg/mL	8 µg/mL	1 µg/mL
Lacticaseibacillus rhamnosus IM1124 (strain group: non-starter strains)	1 µg/mL	2 µg/mL	8 µg/mL	2 µg/mL	2 µg/mL	1 µg/mL	64 µg/mL	8 µg/mL	0.25 µg/mL
Lactiplantibacillus paraplantarum IM1332 (strain group: non-starter strains)	16 µg/mL	32 µg/mL	1 µg/mL	2 µg/mL	1 µg/mL	8 µg/mL	32 µg/mL	8 µg/mL	1 µg/mL
Lacticaseibacillus paracasei IM1011 (strain group: non-starter strains)	1 µg/mL	16 µg/mL	8 µg/mL	2 µg/mL	1 µg/mL	0.12 µg/mL	32 µg/mL	4 µg/mL	0.12 µg/mL
Lactiplantibacillus plantarum IM1161 (strain group: non-starter strains)	8 µg/mL	32 µg/mL	4 µg/mL	2 µg/mL	2 µg/mL	4 µg/mL	8 µg/mL	4 µg/mL	0.5 µg/mL
Lactiplantibacillus plantarum IM1154 (strain group: non-starter strains)	16 µg/mL	128 µg/mL	8 µg/mL	8 µg/mL	1 µg/mL	1 µg/mL	256 µg/mL	8 µg/mL	0.5 µg/mL
Lacticaseibacillus paracasei IM657 (strain group: human intestinal mucosa or faeces)	1 µg/mL	8 µg/mL	8 µg/mL	2 µg/mL	1 µg/mL	0.12 µg/mL	32 µg/mL	8 µg/mL	0.12 µg/mL
Lacticaseibacillus casei IM1106 (strain group: non-starter strains)	1 µg/mL	16 µg/mL	4 µg/mL	2 µg/mL	2 µg/mL	0.25 µg/mL	64 µg/mL	4 µg/mL	0.25 µg/mL
Lacticaseibacillus rhamnosus IM1101 (strain group: non-starter strains)	1 µg/mL	16 µg/mL	4 µg/mL	2 µg/mL	2 µg/mL	1 µg/mL	64 µg/mL	8 µg/mL	0.25 µg/mL
Pediococcus acidilactici/pentosaceus/lolli IM706 (strain group: human milk or colostrum)	32 µg/mL	128 µg/mL	16 µg/mL	8 µg/mL	4 µg/mL	0.12 µg/mL	256 µg/mL	8 µg/mL	1 µg/mL
Limosilactobacillus fermentum IM867 (strain group: human milk or colostrum)	8 µg/mL	32 µg/mL	2 µg/mL	2 µg/mL	0.5 µg/mL	0.06 µg/mL	64 µg/mL	8 µg/mL	0.25 µg/mL
Levilactobacillus brevis IM1129 (strain group: non-starter strains)	16 µg/mL	64 µg/mL	8 µg/mL	4 µg/mL	2 µg/mL	0.5 µg/mL	128 µg/mL	8 µg/mL	0.5 µg/mL
Pediococcus pentosaceus IM1150 (strain group: non-starter strains)	32 µg/mL	128 µg/mL	4 µg/mL	8 µg/mL	16 µg/mL	0.06 µg/mL	256 µg/mL	4 µg/mL	0.5 µg/mL
